Test results reported in patent publication US20260101892A1, “METHOD TO INHIBIT PROLIFERATION OF A PHYTOPATHOGEN ON PLANTS AND COMPOSITIONS USED FOR THIS PURPOSE” (CYSBIO APS, priority 2022, published 2026).

Assays:
Puccinia striiformis = experiment: Yellow rust in wheat, greenhouse trial, contact fungicide; details: 10% zosteric acid with 0.1% Tween
[1] = tested on: powdery mildew (Podosphaera aphanis); experiment: Powdery mildew in strawberries, controlled environment trial; details: zosteric acid at 3%, 6%, 9%

## O=C(O)/C=C/c1ccc(OS(=O)(=O)O)cc1 [zosteric acid]
Puccinia striiformis
  efficacy compared with currently used fungicides: not as effective in preventing disease as currently used fungicides
Puccinia striiformis; 150 L/ha, sprayed one day before inoculation
  development of yellow rust: drastically reduces the development of yellow rust
[1]
  efficacy compared with standard fungicide Karma (3 kg/ha): not statistical difference between the efficacy of Karma and the zosteric acid treatments
[1]; four applications day 0, 7, 14, 21, FIG. 6, evaluated 30 days after first treatment
  control of disease development (% area of leaves infected): efficient at controlling disease development at all the concentrations tested
